The list shows a part of the results.
Columns and labels:
Assay in all cases: glycan array binding signal (z-score within array); higher = stronger binding
Conditions in all cases: glycan notation: IUPAC condensed, linker removed; mutation: N224Q
[1] = biological target: Neu5Ac(a2-3)Gal(b1-4)GlcNAc(b1-3)[Neu5Ac(a2-3)Gal(b1-4)GlcNAc(b1-6)]GalNAc
Summary of the method: (§1)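 Arrays were curated from the Consortium for Functional Glycomics database, 3228 in total, and kept only where the protein sequence was available. Binding is expressed as a within-array Z-score. This score was averaged across arrays of the same protein sequence at different concentrations or buffers and across linkers, and negative values can be read as non-binding.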

[2] = biological target: Neu5Ac(a2-3)Gal(b1-4)GlcNAc(b1-6)GalNAc
Summary of the method: as §1

[3] = biological target: Neu5Ac(a2-3)Gal(b1-4)GlcNAc(b1-6)[Gal(b1-3)]GalNAc
Summary of the method: as §1

[4] = biological target: Neu5Ac(a2-3)Gal(b1-4)GlcNAc(b1-6)[Neu5Ac(a2-3)Gal(b1-3)]GalNAc
Summary of the method: as §1

[5] = biological target: Neu5Ac(a2-3)Gal(b1-4)GlcNAc6S
Summary of the method: as §1

[6] = biological target: Neu5Ac(a2-3)Gal(b1-4)[Fuc(a1-3)]GlcNAc
Summary of the method: as §1

[7] = biological target: Neu5Ac(a2-3)Gal(b1-4)[Fuc(a1-3)]GlcNAc(b1-2)Man
Summary of the method: as §1

[8] = biological target: Neu5Ac(a2-3)Gal(b1-4)[Fuc(a1-3)]GlcNAc(b1-3)Gal
Summary of the method: as §1

[9] = biological target: Neu5Ac(a2-3)Gal(b1-4)[Fuc(a1-3)]GlcNAc(b1-3)Gal(b1-4)GlcNAc
Summary of the method: as §1

[10] = biological target: Neu5Ac(a2-3)Gal(b1-4)[Fuc(a1-3)]GlcNAc(b1-3)Gal(b1-4)[Fuc(a1-3)]GlcNAc(b1-3)Gal(b1-4)[Fuc(a1-3)]GlcNAc
Summary of the method: as §1

[11] = biological target: Neu5Ac(a2-3)Gal(b1-4)[Fuc(a1-3)]GlcNAc(b1-3)GalNAc
Summary of the method: as §1

[12] = biological target: Neu5Ac(a2-3)Gal(b1-4)[Fuc(a1-3)]GlcNAc(b1-6)[Gal(b1-3)]GalNAc
Summary of the method: as §1

[13] = biological target: Neu5Ac(a2-3)Gal(b1-4)[Fuc(a1-3)]GlcNAc(b1-6)[Neu5Ac(a2-3)Gal(b1-3)]GalNAc
Summary of the method: as §1

[14] = biological target: Neu5Ac(a2-3)Gal(b1-4)[Fuc(a1-3)]GlcNAc6S
Summary of the method: as §1

[15] = biological target: Neu5Ac(a2-3)Gal6S(b1-4)GlcNAc
Summary of the method: as §1

[16] = biological target: Neu5Ac(a2-3)Gal6S(b1-4)[Fuc(a1-3)]GlcNAc
Summary of the method: as §1

Neu5Ac(a2-3)GalNAc = biological target: Neu5Ac(a2-3)GalNAc
Summary of the method: as §1

[17] = biological target: Neu5Ac(a2-3)GalNAc(b1-4)GlcNAc
Summary of the method: as §1

[18] = biological target: Neu5Ac(a2-3)[GalNAc(b1-4)]Gal(b1-4)Glc
Summary of the method: as §1

[19] = biological target: Neu5Ac(a2-3)[GalNAc(b1-4)]Gal(b1-4)GlcNAc
Summary of the method: as §1

[20] = biological target: Neu5Ac(a2-3)[GalNAc(b1-4)]Gal(b1-4)GlcNAc(b1-3)GalNAc
Summary of the method: as §1

[21] = biological target: Neu5Ac(a2-3)[Neu5Ac(a2-6)]GalNAc
Summary of the method: as §1

Neu5Ac(a2-6)Gal = biological target: Neu5Ac(a2-6)Gal
Summary of the method: as §1

[22] = biological target: Neu5Ac(a2-6)Gal(b1-3)GlcNAc(b1-3)[Gal(b1-4)GlcNAc(b1-6)]Gal(b1-4)Glc
Summary of the method: as §1

Neu5Ac(a2-6)Gal(b1-4)Glc = biological target: Neu5Ac(a2-6)Gal(b1-4)Glc
Summary of the method: as §1

[23] = biological target: Neu5Ac(a2-6)Gal(b1-4)GlcNAc
Summary of the method: as §1

[24] = biological target: Neu5Ac(a2-6)Gal(b1-4)GlcNAc(b1-2)Man
Summary of the method: as §1

[25] = biological target: Neu5Ac(a2-6)Gal(b1-4)GlcNAc(b1-2)Man(a1-3)Man(b1-4)GlcNAc(b1-4)GlcNAc
Summary of the method: as §1

[26] = biological target: Neu5Ac(a2-6)Gal(b1-4)GlcNAc(b1-2)Man(a1-3)[Gal(b1-4)GlcNAc(b1-2)Man(a1-6)]Man(b1-4)GlcNAc(b1-4)GlcNAc
Summary of the method: as §1

[27] = biological target: Neu5Ac(a2-6)Gal(b1-4)GlcNAc(b1-2)Man(a1-3)[GlcNAc(b1-4)][Neu5Ac(a2-6)Gal(b1-4)GlcNAc(b1-2)Man(a1-6)]Man(b1-4)GlcNAc(b1-4)GlcNAc
Summary of the method: as §1

[28] = biological target: Neu5Ac(a2-6)Gal(b1-4)GlcNAc(b1-2)Man(a1-3)[Man(a1-6)]Man(b1-4)GlcNAc(b1-4)GlcNAc
Summary of the method: as §1

[29] = biological target: Neu5Ac(a2-6)Gal(b1-4)GlcNAc(b1-2)Man(a1-3)[Neu5Ac(a2-3)Gal(b1-4)GlcNAc(b1-2)Man(a1-6)]Man(b1-4)GlcNAc(b1-4)GlcNAc
Summary of the method: as §1

[30] = biological target: Neu5Ac(a2-6)Gal(b1-4)GlcNAc(b1-2)Man(a1-3)[Neu5Ac(a2-6)Gal(b1-4)GlcNAc(b1-2)Man(a1-6)]Man(b1-4)GlcNAc(b1-4)GlcNAc
Summary of the method: as §1

[31] = biological target: Neu5Ac(a2-6)Gal(b1-4)GlcNAc(b1-2)Man(a1-3)[Neu5Ac(a2-6)Gal(b1-4)GlcNAc(b1-2)Man(a1-6)]Man(b1-4)GlcNAc(b1-4)[Fuc(a1-6)]GlcNAc
Summary of the method: as §1

[32] = biological target: Neu5Ac(a2-6)Gal(b1-4)GlcNAc(b1-2)Man(a1-6)Man(b1-4)GlcNAc(b1-4)GlcNAc
Summary of the method: as §1

[33] = biological target: Neu5Ac(a2-6)Gal(b1-4)GlcNAc(b1-2)Man(a1-6)[Gal(b1-4)GlcNAc(b1-2)Man(a1-3)]Man(b1-4)GlcNAc(b1-4)GlcNAc
Summary of the method: as §1

[34] = biological target: Neu5Ac(a2-6)Gal(b1-4)GlcNAc(b1-2)Man(a1-6)[GlcNAc(b1-2)Man(a1-3)]Man(b1-4)GlcNAc(b1-4)GlcNAc
Summary of the method: as §1

[35] = biological target: Neu5Ac(a2-6)Gal(b1-4)GlcNAc(b1-2)Man(a1-6)[Man(a1-3)]Man(b1-4)GlcNAc(b1-4)GlcNAc
Summary of the method: as §1

[36] = biological target: Neu5Ac(a2-6)Gal(b1-4)GlcNAc(b1-2)[Neu5Ac(a2-6)Gal(b1-4)GlcNAc(b1-4)]Man(a1-3)[GlcNAc(b1-4)][Neu5Ac(a2-6)Gal(b1-4)GlcNAc(b1-2)[Neu5Ac(a2-6)Gal(b1-4)GlcNAc(b1-6)]Man(a1-6)]Man(b1-4)GlcNAc(b1-4)GlcNAc
Summary of the method: as §1

[37] = biological target: Neu5Ac(a2-6)Gal(b1-4)GlcNAc(b1-2)[Neu5Ac(a2-6)Gal(b1-4)GlcNAc(b1-4)]Man(a1-3)[GlcNAc(b1-4)][Neu5Ac(a2-6)Gal(b1-4)GlcNAc(b1-4)Man(a1-6)]Man(b1-4)GlcNAc(b1-4)GlcNAc
Summary of the method: as §1

[38] = biological target: Neu5Ac(a2-6)Gal(b1-4)GlcNAc(b1-2)[Neu5Ac(a2-6)Gal(b1-4)GlcNAc(b1-6)]Man(a1-6)[Neu5Ac(a2-6)Gal(b1-4)GlcNAc(b1-2)Man(a1-3)][GlcNAc(b1-4)]Man(b1-4)GlcNAc(b1-4)GlcNAc
Summary of the method: as §1

[39] = biological target: Neu5Ac(a2-6)Gal(b1-4)GlcNAc(b1-3)Gal(b1-3)GlcNAc
Summary of the method: as §1

[40] = biological target: Neu5Ac(a2-6)Gal(b1-4)GlcNAc(b1-3)Gal(b1-4)GlcNAc
Summary of the method: as §1

[41] = biological target: Neu5Ac(a2-6)Gal(b1-4)GlcNAc(b1-3)Gal(b1-4)GlcNAc(b1-2)Man(a1-3)[Neu5Ac(a2-6)Gal(b1-4)GlcNAc(b1-3)Gal(b1-4)GlcNAc(b1-2)Man(a1-6)]GalNAc
Summary of the method: as §1

[42] = biological target: Neu5Ac(a2-6)Gal(b1-4)GlcNAc(b1-3)Gal(b1-4)GlcNAc(b1-3)Gal(b1-4)GlcNAc
Summary of the method: as §1

[43] = biological target: Neu5Ac(a2-6)Gal(b1-4)GlcNAc(b1-3)Gal(b1-4)GlcNAc(b1-3)Gal(b1-4)GlcNAc(b1-2)Man(a1-3)[Neu5Ac(a2-6)Gal(b1-4)GlcNAc(b1-3)Gal(b1-4)GlcNAc(b1-3)Gal(b1-4)GlcNAc(b1-2)Man(a1-6)]GalNAc
Summary of the method: as §1

B1: AAL (Aleuria aurantia) (protein)
chain: MPTEFLYTSKIAAISWAATGGRQQRVYFQDLNGKIREAQRGGDNPWTGGSSQNVIGEAKLFSPLAAVTWKSAQGIQIRVYCVNKDNILSEFVYDGSKWITGQLGSVGVKVGSNSKLAALQWGGSESAPPNIRVYYQKSNGSGSSIHEYVWSGKWTAGASFGSTVPGTGIGATAIGPGRLRIYYQATDNKIREHCWDSNSWYVGGFSASASAGVSIAAISWGSTPQIRVYWQKGREELYEAAYGGSWNTPGQIKDASRPTPSLPDTFIAANSSGNIDISVFFQASGVSLQQWQWISGKGWSIGAVVPTGTPAGW
For B1, the “glycan array binding signal (z-score)” value [1] was -0.321, the “glycan array binding signal (z-score)” value [2] was -0.319 and the “glycan array binding signal (z-score)” value [3] was -0.256. For the same binder, the “glycan array binding signal (z-score)” value [4] was -0.324, the “glycan array binding signal (z-score)” value [5] was -0.327 and the “glycan array binding signal (z-score)” value [6] was 0.758. For the same binder, the “glycan array binding signal (z-score)” value [7] was 0.186, the “glycan array binding signal (z-score)” value [8] was 1.54 and the “glycan array binding signal (z-score)” value [9] was 1.39. For the same binder, the “glycan array binding signal (z-score)” value [10] was 1.85, the “glycan array binding signal (z-score)” value [11] was -0.22 and the “glycan array binding signal (z-score)” value [12] was -0.28. For the same binder, the “glycan array binding signal (z-score)” value [13] was -0.278, the “glycan array binding signal (z-score)” value [14] was 0.284 and the “glycan array binding signal (z-score)” value [15] was 0.529. The “glycan array binding signal (z-score)” value [16] was 1.22, the “glycan array binding signal (z-score)” value (Neu5Ac(a2-3)GalNAc) was -0.294 and the “glycan array binding signal (z-score)” value [17] was -0.326. For the same binder, the “glycan array binding signal (z-score)” value [18] was -0.32, the “glycan array binding signal (z-score)” value [19] was -0.323 and the “glycan array binding signal (z-score)” value [20] was -0.298. For the same binder, the “glycan array binding signal (z-score)” value [21] was -0.286, the “glycan array binding signal (z-score)” value (Neu5Ac(a2-6)Gal) was -0.314 and the “glycan array binding signal (z-score)” value [22] was -0.321. The “glycan array binding signal (z-score)” value (Neu5Ac(a2-6)Gal(b1-4)Glc) was -0.319, the “glycan array binding signal (z-score)” value [23] was -0.328 and the “glycan array binding signal (z-score)” value [24] was -0.272. For the same binder, the “glycan array binding signal (z-score)” value [25] was -0.315, the “glycan array binding signal (z-score)” value [26] was -0.272 and the “glycan array binding signal (z-score)” value [27] was -0.311. For the same binder, the “glycan array binding signal (z-score)” value [28] was -0.318, the “glycan array binding signal (z-score)” value [29] was -0.315 and the “glycan array binding signal (z-score)” value [30] was -0.305. The “glycan array binding signal (z-score)” value [31] was 1.76, the “glycan array binding signal (z-score)” value [32] was -0.316 and the “glycan array binding signal (z-score)” value [33] was -0.318. The “glycan array binding signal (z-score)” value [34] was -0.327, the “glycan array binding signal (z-score)” value [35] was -0.31 and the “glycan array binding signal (z-score)” value [36] was -0.299. The “glycan array binding signal (z-score)” value [37] was -0.318, the “glycan array binding signal (z-score)” value [38] was -0.303 and the “glycan array binding signal (z-score)” value [39] was -0.324. For the same binder, the “glycan array binding signal (z-score)” value [40] was -0.324, the “glycan array binding signal (z-score)” value [41] was -0.277 and the “glycan array binding signal (z-score)” value [42] was -0.32. For the same binder, the “glycan array binding signal (z-score)” value [43] was -0.085.

From the supplement of paper PMC8728848
